In patent US20180339066A1, “Methods and Compositions for Enhancing Transduction Efficiency of Retroviral Vectors” (The Scripps Research Institute, priority 2013, published 2018):

Test system: stimulated cord blood CD34+ cells
Assay: Quantification of HIV-1 reverse transcription products by qPCR
Conditions: MOI=25, 20 μg/ml rapamycin
Experimental: Quantification of HIV-1 reverse transcription products. Stimulated cord blood CD34^+ cells (2-3E5) were transduced with an MOI of 25 in the presence of 20 μg/ml rapamycin or DMSO, and harvested at 6, 12, or 24 hours after the start of transduction by freezing cell pellets at −80° C. Total DNA was extracted using the QiaAmp DNA mini kit, and treated with Dpnl for 2-4 hours to eliminate plasmid DNA. Quantitative PCR was carried out on the Roche LightCycler 480 using previously published primer and probe sequences (Prasad et al., HIV Protocols: Second Edition 485, 2009).
We examined the kinetics of vector entry and reverse transcription to elucidate the replication step facilitated by rapamycin. The amount of cytoplasmic entry of viral cores can be determined by transducing cells with a vector carrying the HIV-1 accessory protein Vpr fused to β-lactamase (BLAM), and quantifying the blue fluorescence of a cleaved BLAM substrate by flow cytometry (see, e.g., Tobiume et al., J. Virol. 77:10645-50, 2003). […] In addition, we quantified the amount of reverse transcription and nuclear import products by qPCR, and found 2-to-3-fold increase in the per cell amount of viral strong-stop DNA, full-length DNA, and 2-LTR circles in the presence of rapamycin (FIG. 7B-D). […]

CO[C@H]1C[C@@H]2CC[C@@H](C)[C@@](O)(O2)C(=O)C(=O)N2CCCC[C@H]2C(=O)O[C@H]([C@H](C)C[C@@H]2CC[C@@H](O)[C@H](OC)C2)CC(=O)[C@H](C)/C=C(\C)[C@@H](O)[C@@H](OC)C(=O)[C@H](C)C[C@H](C)/C=C/C=C/C=C/1C [rapamycin]
increase in per cell amount of viral strong-stop DNA: 2-to-3 fold
